# Assay results as given in PubChem BioAssay AID485281 (National Center for Advancing Translational Sciences (NCATS), 2010).
# The campaign covered roughly 350,000 compounds. About 260 (0.074%) were called active. The inconclusive results got no clear call from the source; some entries with a clear call stand among them for comparison. The call rests on the fitted dose curve; in most records, active means well fitted inhibition curve with a large enough effect; inconclusive means small, poorly fitted or top-dose-only effect; inactive means no such curve, though single readings can be large or run the other way. A potency beside an inconclusive call is a rough fit, not a confirmed value.
# Molecular target: Ferritin light chain (Equus caballus) (UniProt P02791)
# Test: qHTS Assay for Identification of Novel General Anesthetics; further: nearly all actives have a fitted effect of over 20% in size
# Details: apoferritin/1-aminoanthracene competitive binding, fluorescence; series mostly up to 77.5 µM
# Method in brief: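 10 uM apoferritin + 50% sat. 1-AMA, PBS; cpd 10 min RT; Ex380/Em535 endpoint; normalized to free probe vs complex; 4-param Hill fit; propofol titration as pos. ctrl.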
# Potency means the concentration at half of the fitted maximal effect; tags describe the fitted curve by direction and shape.
# UniProt P02791, sequence (P02791 whole entry, looked up): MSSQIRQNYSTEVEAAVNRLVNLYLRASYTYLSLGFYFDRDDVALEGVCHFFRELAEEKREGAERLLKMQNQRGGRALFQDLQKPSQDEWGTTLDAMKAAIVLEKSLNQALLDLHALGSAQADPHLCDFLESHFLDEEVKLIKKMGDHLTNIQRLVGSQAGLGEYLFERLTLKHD
row,Structure (SMILES),Potency
1,Cc1csc2nc(-c3cccc(NC(=O)c4c(F)cccc4F)c3)cn12,inactive
2,COc1ccc(CCNc2nc3c(c(=O)n(C)c(=O)n3C)n2Cc2ccccc2Cl)cc1OC,"inconclusive: 28.2 µM [inhibitor, partial curve]"
3,COc1cc2c3nnc(-c4ccccc4)c-3cn(Cc3ccc(F)cc3)c2cc1OC,inactive
4,CCSC1(SCC)N=C(N)C2(C#N)C(c3ccc(F)cc3)C12C#N (stereo unspecified),"inconclusive: 31.6 µM [inhibitor, single point]"
5,CC1(C)CC(=O)N(Cc2ccccc2)C(=O)C1,"inconclusive: 12.6 µM [inhibitor, partial curve]"
6,CCc1nnc(NC(=O)C2COc3ccccc3O2)s1 (stereo unspecified),inactive
7,CN(C)/C=N/c1ncc(C(=O)c2ccc3ccccc3c2)s1,"inconclusive: 28.2 µM [inhibitor, partial curve]"
8,Nc1nc(C23CC4CC(CC(C4)C2)C3)cs1,"inconclusive: 7.08 µM [inhibitor, full curve]"
9,COc1ccc(N(CC(O)Cn2c(C)nc3ccccc32)S(=O)(=O)c2ccc(C)cc2)cc1 (stereo unspecified),inactive
10,COc1cc(/C=C2\SC(=S)N(CC(=O)Nc3ccc(O)cc3)C2=O)cc(OC)c1OC,"inconclusive: 25.1 µM [inhibitor, partial curve]"
11,CCN(CC)c1ccc(/C=C(\C#N)C(N)=O)cc1,"inconclusive: 25.1 µM [inhibitor, partial curve]"
12,CCCCNC(=O)c1sc2ncccc2c1-n1cccc1,inactive
13,O=C(c1cc2nc(-c3ccc(F)cc3)cc(C(F)(F)F)n2n1)N1CCCCC1c1cccnc1 (stereo unspecified),"inconclusive: 35.5 µM [inhibitor, partial curve]"
14,CCOC(=O)Cn1c(=O)n(-c2ccc(Cl)cc2)c2nc(-c3ccc(Cl)cc3)nc(C(N)=O)c21,inactive
15,CN1C(=O)c2ccccc2Sc2ccc(NC(=O)c3ccc(C#N)cc3)cc21,"inconclusive: 11.2 µM [inhibitor, partial curve]"
16,CCn1c(CSCc2ccc(C)cc2)nnc1SCC(=O)N1CCN(c2ccccc2)CC1,"inconclusive: 28.2 µM [inhibitor, partial curve]"
17,CCn1c(C)cc(/C=C2\NC(=O)N(CC(=O)Nc3cccc(C)c3)C2=O)c1C,"inconclusive: 12.6 µM [inhibitor, partial curve]"
18,O=C(COC(=O)c1c2c(nc3ccccc13)CCCC2)c1ccc(Br)s1,"inconclusive: 25.1 µM [inhibitor, partial curve]"
19,Cc1c(-c2nc(-c3ccc4c(c3)OCO4)no2)nnn1-c1cccc(C(F)(F)F)c1,inactive
20,N#C/C(=C(\O)Cc1ccccc1)c1nc2ccccc2[nH]1,inactive
21,Cc1cccc(OCCSc2ncnc3nc[nH]c23)c1,"inconclusive: 39.8 µM [inhibitor, single point]"
22,Cc1ccccc1Cn1cnc2ccccc2c1=O,"inconclusive: 35.5 µM [inhibitor, partial curve]"
23,CCNc1ccc(C(=O)OCC(=O)N2c3ccccc3NC(=O)C2(C)C)cc1[N+](=O)[O-],"inconclusive: 31.6 µM [inhibitor, partial curve]"
24,O=C(NNC(=O)C12CC3CC(CC(C3)C1)C2)[C@@H]1C[C@H]1c1ccccc1,"inconclusive: 28.2 µM [inhibitor, partial curve]"

row,Structure (SMILES),Potency
1,c1cc2nc(C34CC5CC(CC(C5)C3)C4)[nH]c2cn1,inactive
2,Cc1cccnc1Nc1nc(-c2ccc(F)cc2)cs1,inactive
3,Cc1cc(C)c(NC(=O)COC(=O)c2ccc([N+](=O)[O-])s2)c(C)c1,inactive
4,Cc1ccc(NC(=O)CCn2cnc3onc(-c4ccc(F)cc4)c3c2=O)c(Br)c1,"inconclusive: 6.31 µM [inhibitor, single point]"
5,COc1cccc(NCc2cc(=O)oc3cc(-c4ccccc4)c(O)cc23)c1,"inconclusive: 35.5 µM [inhibitor, partial curve]"
6,COc1cccc(NC(=O)CSC(N)=O)c1,"inconclusive: 35.5 µM [inhibitor, single point]"
7,O=C(/C=C/c1ccco1)Oc1cc(Br)cc(/C=N/NC(=O)c2ccccc2O)c1,inactive
8,Nc1nc(-c2ccc3c(c2)CCCC3)cs1,"inconclusive: 10 µM [inhibitor, partial curve]"
9,COc1ccc(C2/C=C\CN(Cc3ccccc3)CC(=O)N2Cc2ccc(F)cc2)cc1 (stereo unspecified),"inconclusive: 11.2 µM [inhibitor, partial curve]"
10,CN(C)c1ccc(CNn2cnnc2SCc2ccc(F)cc2)cc1,"inconclusive: 50.1 µM [inhibitor, single point]"
11,CCCCC(=O)NC(c1ccc(N(C)C)cc1)c1ccc2cccnc2c1O (stereo unspecified),inactive
12,CCc1c(C)nc2nc(-c3ccccc3)nn2c1NCc1ccc(C)cc1,inactive
13,CC(=O)Nc1ccc(C(=O)OCCc2ccccc2)cc1,inactive
14,CC(NC(=O)c1cccnc1)C(c1ccccc1)N1CCN(C)CC1 (stereo unspecified),inactive
15,c1ccc2cc(OCCCn3ccnc3)ccc2c1,"inconclusive: 28.2 µM [inhibitor, single point]"
16,O=C(CN1CCCc2ccccc21)N1CCc2ccccc21,"inconclusive: 44.7 µM [inhibitor, partial curve]"
17,Cc1cccc(N2CC(C(=O)Nc3nnc(SCc4ccccn4)s3)CC2=O)c1 (stereo unspecified),"inconclusive: 25.1 µM [inhibitor, partial curve]"
18,Fc1ccc(C2CC(c3ccco3)=Nc3ccccc3S2)cc1 (stereo unspecified),"inconclusive: 35.5 µM [inhibitor, partial curve]"
19,C=CCn1c(CCNC(=O)c2cccs2)nnc1SCC(=O)c1ccc(Cl)cc1,"inconclusive: 28.2 µM [inhibitor, partial curve]"
20,CC(C)c1ccc(NC(=O)/C(C#N)=C/c2ccncc2)cc1,"inconclusive: 28.2 µM [inhibitor, partial curve]"
21,COc1ccc(CCNc2cc(C)nc3c(-c4ccccc4)cnn23)cc1OC,inactive
22,CCOc1cc(C2C(C(=O)OC)=C(C)NC3=C2C(=O)c2ccccc23)cc(Br)c1OCC (stereo unspecified),"inconclusive: 1.26 µM [inhibitor, full curve, poor fit]"
23,CC(C)COC(=O)c1ccc(NC(=O)C2C3CCC(C3)C2C(=O)O)cc1 (stereo unspecified),"inconclusive: 28.2 µM [inhibitor, partial curve]"
24,COc1ccc(-c2ccc(C3C4C=CCC(C)C4C(=O)N3Cc3ccccc3)c(F)c2)cc1C (stereo unspecified),inactive

row,Structure (SMILES),Potency
1,O=C(c1oc(=O)c2ccccc2c1-c1ccccc1)N1CCOCC1,inactive
2,CCCCCc1ccc(CC(=O)N2CCOCC2)cc1,"inconclusive: 31.6 µM [inhibitor, single point]"
3,O=C(Cc1c(F)cccc1Cl)Nc1nc2ccccc2s1,"inconclusive: 22.4 µM [inhibitor, partial curve]"
4,CC(=O)OCC(=O)[C@@]1(O)CC[C@@H]2[C@H]3CCC4=CC(=O)CC[C@]4(C)[C@]3(F)[C@@H](O)C[C@@]21C,inactive
5,CCCCOC(=O)c1ccc(N/C(=N\S(=O)(=O)c2ccccc2)c2ccccc2)cc1,"inconclusive: 28.2 µM [inhibitor, partial curve]"
6,O=C1c2ccc3c4c(ccc(c24)C(=O)N1CCCCO)C(=O)N(CCCCO)C3=O,"inconclusive: 22.4 µM [inhibitor, partial curve]"
7,CC1CCCCN1C(=O)CSc1nnc2c(n1)[nH]c1ccccc12 (stereo unspecified),inactive
8,CC1CCN(C(=O)CC2C(=O)Nc3c2c(=O)n(C)c(=O)n3Cc2ccccc2)CC1 (stereo unspecified),"inconclusive: 31.6 µM [inhibitor, partial curve]"
9,Cc1cc(C)n2nc(C(=O)Nc3cccc(S(=O)(=O)N(C)c4ccccc4)c3)nc2n1,"inconclusive: 25.1 µM [inhibitor, single point]"
10,CC(C)CNC1=CC(=O)CC(c2ccco2)C1 (stereo unspecified),"inconclusive: 39.8 µM [inhibitor, single point]"
11,Cc1cc([N+](=O)[O-])nn1CCCC(=O)Nc1sc2c(c1C(N)=O)CCCC2,"inconclusive: 39.8 µM [inhibitor, partial curve]"
12,CC1CCCN(c2nc(-c3cccnc3)nc3scc(-c4ccccc4)c23)C1 (stereo unspecified),inactive
13,CC(C)(C)c1ccc(C(=O)NC(=S)NCc2ccco2)cc1,"inconclusive: 22.4 µM [inhibitor, partial curve]"
14,O=[N+]([O-])c1cncc([N+](=O)[O-])c1Nc1ccccc1Cl,"inconclusive: 25.1 µM [inhibitor, partial curve]"
15,FC(F)(F)c1ccc(/C=N/n2c(C3CCCCC3)n[nH]c2=S)cc1,"inconclusive: 28.2 µM [inhibitor, single point]"
16,O=C(Nc1ccc(F)cc1)Nc1csc2ccccc12,inactive
17,CCCn1c(SCC(=O)c2ccc3c(c2)OCCO3)nnc1-c1ccco1,"inconclusive: 28.2 µM [inhibitor, partial curve]"
18,CC1(C(=O)Nc2ccc3ccccc3c2)CC1(Br)Br (stereo unspecified),"inconclusive: 14.1 µM [inhibitor, partial curve]"
19,CCOC(=O)C1C(C(=O)OCC)C1(c1ccccc1)c1ccccc1 (stereo unspecified),inactive
20,O=c1c(CN2CCN(c3ccccn3)CC2)coc2ccccc12,inactive
21,Cc1nc2ccccc2c2nc3ccccc3n12,inactive
22,CCN(CC)S(=O)(=O)c1ccc2c(c1)c(=O)c(C(=O)N1CCN(c3cccc(C)c3)C(C)C1)cn2C (stereo unspecified),"inconclusive: 5.62 µM [inhibitor, full curve]"
23,Cc1noc(NS(=O)(=O)c2ccc(N/C=C/C(=O)c3ccncc3)cc2)c1C,"inconclusive: 39.8 µM [inhibitor, single point]"
